This is an account of results in PubChem BioAssay AID360 (National Center for Advancing Translational Sciences (NCATS), 2006).

Screen size: about 48,000 compounds; about 550 (1.1%) were called active. About 4% were inconclusive and are not listed. No stated cut-off is given here; in the data, active means potency below about 15 µM; inconclusive means mostly about 16 µM to 33 µM; inactive means weaker than that. Some of the results follow.
Potency means the concentration at half of the fitted maximal effect.

Chain of UniProt P04062 (P04062 whole entry, looked up): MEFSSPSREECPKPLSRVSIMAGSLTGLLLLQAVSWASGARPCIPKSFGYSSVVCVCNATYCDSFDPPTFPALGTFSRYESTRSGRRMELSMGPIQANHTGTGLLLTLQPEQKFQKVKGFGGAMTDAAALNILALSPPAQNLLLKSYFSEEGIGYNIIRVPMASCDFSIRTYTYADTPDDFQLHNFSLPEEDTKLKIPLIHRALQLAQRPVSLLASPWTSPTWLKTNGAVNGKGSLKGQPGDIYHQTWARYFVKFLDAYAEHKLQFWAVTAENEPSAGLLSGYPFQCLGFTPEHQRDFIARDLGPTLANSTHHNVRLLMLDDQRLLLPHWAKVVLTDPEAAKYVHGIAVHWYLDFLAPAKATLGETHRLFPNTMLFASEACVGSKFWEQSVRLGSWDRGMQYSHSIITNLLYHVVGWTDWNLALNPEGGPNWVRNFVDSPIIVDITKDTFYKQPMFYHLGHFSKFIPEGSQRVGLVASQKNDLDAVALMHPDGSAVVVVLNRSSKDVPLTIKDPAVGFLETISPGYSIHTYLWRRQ

The target in the experiment is Lysosomal acid glucosylceramidase (Homo sapiens) (UniProt P04062). As to the kind of experiment: Glucocerebrosidase.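 Further: the screen sought inhibitors.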 The settings on record: purified enzyme, resorufin glucoside fluorescence (screen aimed at inhibitors), 20 min. An outline of the steps:
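Compounds titrated against 0.2 nM normal enzyme, 30 uM resorufin beta-D-glucopyranoside substrate, citrate/phosphate buffer with taurocholate and tween-20, pH 5.9. Reaction ran 20 min at room temperature; fluorescence (Ex 548/Em 600) gave AC50.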
With `O=C(c1cccc(OC(F)F)c1)N1CCN(c2ncccn2)CC1`, the Potency was inactive: > 76.9 µM.
Then `O=C(Nc1ccccc1)c1cccnc1Nc1ccccc1`, with inactive: > 76.9 µM.
To `Cc1nn(CC(=O)Nc2ccc3c(c2)nc(CN2CCCC2)n3C)c(=O)c2ccccc12` belongs inactive: > 76.9 µM; to `COc1ccccc1N1CCN(C(=O)CCc2ccc(S(=O)(=O)NCC(C)C)cc2)CC1`, inactive: > 76.9 µM.
To `N#CCSc1nc2ccccc2c(=O)n1CCC(=O)NC1CCCCC1` belongs inactive: > 76.9 µM; to `O=C(CSC1=NC(=O)C(Cc2ccccc2)C(=O)N1)NC1CCCCC1` (stereo unspecified), inactive: > 76.9 µM.
With `CCC(C)(C(=O)NC1CCCC1)N(Cc1ccco1)C(=O)c1ccc2c(c1)OCO2` (stereo unspecified), the Potency is inactive: > 76.9 µM.
Then `O=C(O)CC(C(=O)NCc1ccccc1)C1CCCO1` (stereo unspecified), with inactive: > 76.9 µM.
Then `CC(=O)Nc1nc2ccccc2n1CCN1CCOCC1`, with inactive: > 76.9 µM; and `CCOC(=O)Cn1nnnc1C(CC)N(Cc1cccs1)Cc1cc2cc(C)ccc2[nH]c1=O` (stereo unspecified), with inactive: > 76.9 µM.
`O=c1cc(-c2ccccc2)nc2n1Cc1ccccc1-2`: the Potency was inactive: > 76.9 µM.
Then `CCOC(=O)c1c(C)oc2c1c(C=NCc1ccccn1)c(O)c1ccccc12`, with inactive: > 76.9 µM.
As to `Cc1noc(C)c1CSc1ncnc2ccccc12`, the Potency is inactive: > 76.9 µM.
To `CC(C(=O)N(C1CC1)C1(C(=O)Nc2ccccc2)CCCC1)N1C(=O)c2ccccc2C1=O` (stereo unspecified) belongs “inactive”; to `Cc1oc2cc3oc(=O)c4c(c3cc2c1C)CCC4`, inactive: > 76.9 µM.
Then `CCN(CC)CCCN1C(=O)C(O)=C(C(=O)c2cccs2)C1c1ccccn1` (stereo unspecified), with inactive: > 76.9 µM.
To `CCOc1cccc(C2C(C#N)=C(N)Oc3cc(C)n(Cc4ccccn4)c(=O)c32)c1OCC` (stereo unspecified) belongs inactive: > 76.9 µM; to `CCCCCn1c(SCC#N)nc2cc(C(=O)NCC3CCCO3)ccc2c1=O` (stereo unspecified), inactive: > 76.9 µM; to `COc1cc2c(cc1OC)-c1cc(OCCN3CCOCC3)nc(=O)n1CC2`, inactive: > 76.9 µM.
Consider `O=C(OCCCCN1C(=O)c2ccccc2C1=O)c1n[nH]c2ccccc12`, for which the Potency is inactive: > 76.9 µM.
To `CC1CCN(C(=O)CSc2nnc(CNC(=O)c3ccco3)o2)CC1` belongs inactive: > 76.9 µM; to `O=C(NCC(=O)N(c1cccnc1)C(C(=O)NC1CCCC1)c1ccco1)c1cccs1` (stereo unspecified), inactive: > 76.9 µM; to `CN(C(=O)c1ccccc1Cl)c1ccccc1`, inactive: > 76.9 µM.
To `CC(=O)N1c2ccccc2C(=O)OC1c1cccnc1` (stereo unspecified) belongs inactive: > 76.9 µM; to `CCc1ccccc1-n1c(SCC(=O)N2CCCC2)nnc1-c1ccccn1`, inactive: > 76.9 µM; to `CC(=O)c1ccccc1OCCCN1CCCCC1`, inactive: > 76.9 µM.
Then `CCOC(=O)c1c(C)[nH]c(C(=O)COC(=O)c2ccc(F)c(S(=O)(=O)N3CCOCC3)c2)c1C`, with inactive: > 76.9 µM.
For the compound `CCCCS(=O)(=O)NC1=NCN(Cc2ccco2)CN1`, the Potency is inactive: > 76.9 µM.
To `COc1cc2[nH]c(=O)n(CCCCCC(=O)N3CCN(c4ccccn4)CC3)c(=O)c2cc1OC` belongs inactive: > 76.9 µM; to `COc1ccc(OC)c(N/C(=N\c2nc(C)cc(C)n2)NC(=O)c2ccco2)c1`, inactive: > 76.9 µM.
To `Cn1c(=O)cc(SCC(=O)N2CCN(c3ccccn3)CC2)c2ccccc21` belongs inactive: > 76.9 µM; to `O=C(CSc1nccc(=O)[nH]1)Nc1ccc(F)c(Cl)c1`, inactive: > 76.9 µM.
To `COc1ccccc1NC(=O)CSc1nc2ccccc2n1C(C)=O` belongs inactive: > 76.9 µM; to `c1csc(Cc2nn3c(-c4n[nH]c5c4CCC5)nnc3s2)c1`, inactive: > 76.9 µM; to `COc1ccc(OC)c(-c2cc(C(=O)Nc3c(C)n(C)n(-c4ccccc4)c3=O)no2)c1`, inactive: > 76.9 µM.
`COC(=O)CCc1c(C)nn(-c2ccccc2)c1C`: the Potency is inactive: > 76.9 µM.
To `O=C(CCCN1C(=O)c2ccccc2C1=O)Nc1sc2c(c1C(=O)NCc1ccco1)CCC2` belongs inactive: > 76.9 µM; to `CCOc1ccccc1C(=O)N(C)Cc1cc2cc(OC)ccc2[nH]c1=O`, inactive: > 76.9 µM.
Then `CCOC(=O)c1cccc(NC(=O)c2cnc3ccccc3n2)c1`, with inactive: > 76.9 µM; and `Cc1cc(C)cc(N2CCN(C(=O)N3CCOCC3)CC2)c1`, with inactive: > 76.9 µM; and `COc1ccc(Cc2nnc(SCC(=O)NC3CCCCC3)n2C)cc1`, with inactive: > 76.9 µM.
Then `COc1cccc(-c2cc(C(=O)NCCN3CCOCC3)no2)c1`, with “inactive”.
As to `O=S(=O)(c1ccc2nc(Cc3ccccc3)[nH]c2c1)N1CCOCC1`, the Potency was inactive: > 76.9 µM.
Then `CCOC(=O)c1c(CN2CCOCC2)oc2ccc(OC)cc12`, with inactive: > 76.9 µM.
Then `Cc1ccc(C(=O)CS(C)(=O)=O)cc1`, with inactive: > 76.9 µM; and `CCC/C(O)=C1\C(=O)CCCC1=NC(C)C(=O)O` (stereo unspecified), with inactive: > 76.9 µM; and `COc1ccccc1-c1nc(C(N)=O)c2[nH]c(=O)n(-c3cccc(C)c3)c2n1`, with inactive: > 76.9 µM.
Then `O=C(CS(=O)(=O)Cc1ccccc1)Nc1ccccn1`, with inactive: > 76.9 µM; and `CN1CCN(CP(=O)(N2CCOCC2)N2CCOCC2)CC1`, with inactive: > 76.9 µM.
As to `c1ccc(OCc2nn3c(Cn4cnc5ccccc54)nnc3s2)cc1`, the Potency is inactive: > 76.9 µM.
Then `COc1ccc(NC(=O)Cc2ccc(Cl)cc2)cc1NC(=O)c1ccco1`, with inactive: > 76.9 µM.
Regarding `CCNC(=O)N1C(=O)C2(OCCO2)c2cc(Br)ccc21`, the Potency result was “inactive”.
As to `Cc1ccc(N2CC(C(=O)NC3=NCCS3)CC2=O)cc1` (stereo unspecified), the Potency was inactive: > 76.9 µM.
Then `Cc1nc2ccccn2c1/C(O)=C1\C(=O)C(=O)N(CCN(C)C)C1c1cccnc1` (stereo unspecified), with inactive: > 76.9 µM.
To `COc1ccc2nc(NC(=O)CSc3nnc(-c4ccoc4C)n3C)sc2c1` belongs inactive: > 76.9 µM; to `CC(=O)N1CCCc2cc(S(=O)(=O)N(C)CCC#N)ccc21`, inactive: > 76.9 µM; to `CCN(CC)C(=O)C1CCCN(c2ncnc3c2cnn3-c2cccc(C)c2)C1` (stereo unspecified), inactive: > 15.4 µM.
To `Brc1ccc(-c2csc(/N=C/N3CCOCC3)n2)cc1` belongs inactive: > 76.9 µM; to `O=C(O)C(CC(=O)N1CCOCC1)NCc1ccccc1` (stereo unspecified), inactive: > 76.9 µM.
`CN1CCc2c(sc3c2c(=O)n(-c2cccc(Cl)c2)c2nncn32)C1`: the Potency was inactive: > 76.9 µM.
As to `N#Cc1c(C#N)c(-c2ccccc2)n(-c2ccc(C(=O)O)cc2)c1N`, the Potency was inactive: > 76.9 µM.
To `Cc1ccccc1Oc1ccc(S(=O)(=O)NCCC(=O)O)cc1` belongs inactive: > 76.9 µM; to `CCc1c(C)sc(NC(=O)c2cc(C)on2)c1C#N`, inactive: > 76.9 µM; to `CCOC(=O)c1sc(NCc2ccco2)c(-c2nc3ccccc3s2)c1N`, “inactive”.
As for `O=C(Cn1c(=O)c2c(ncn2C2CCCC2)n(Cc2ccccc2)c1=O)N1CCc2ccccc21`, the Potency is inactive: > 76.9 µM.
Then `COc1ccc(C2C(C(=O)N3CCCCC3)CCC(=O)N2c2cc(OC)c(OC)c(OC)c2)cc1` (stereo unspecified), with inactive: > 76.9 µM; and `Cc1ccnc(N2CCC(C(=O)Nc3ccc4c(c3)CCC4)CC2)n1`, with inactive: > 76.9 µM.
Then `O=C(CSc1nnc(SCc2ccc(Cl)cc2)s1)N1CCN(C(=O)c2ccco2)CC1`, with inactive: > 76.9 µM; and `COc1ccccc1OCc1nnc(SCCN2CCOCC2)o1`, with inactive: > 76.9 µM; and `Cc1cc2oc(=O)cc(CN3CCN(C/C=C/c4ccccc4)CC3)c2cc1O`, with inactive: > 76.9 µM.
For the compound `CS(=O)(=O)N(CC(=O)N1CCN(c2cccc(Cl)c2)CC1)c1cccc(F)c1`, the Potency was inactive: > 76.9 µM.
On to `O=C(CCS(=O)(=O)c1cccs1)NC1CCCCCC1`, for which the Potency was inactive: > 76.9 µM.
As to `O=C(Nc1nnc(C2CCCO2)s1)c1cccs1` (stereo unspecified), the Potency is inactive: > 76.9 µM.
Then `COc1ccc(-c2nnc(SCC(=O)Nc3ccccc3OC)o2)cc1`, with inactive: > 76.9 µM; and `CCn1cc(C(=O)OCC(=O)OC2CC(C)CCC2C(C)C)c(=O)c2ccc(C)nc21` (stereo unspecified), with inactive: > 76.9 µM; and `O=C(CCC(=O)c1cccs1)Nc1nnc(C2CC2)s1`, with inactive: > 76.9 µM.
To `COc1ccc(NC2CS(=O)(=O)CC2OC(=O)c2ccc(F)cc2)cc1` (stereo unspecified) belongs inactive: > 76.9 µM; to `O=C(O)CCC(=O)OCC1CCCO1` (stereo unspecified), inactive: > 76.9 µM; to `O=C(NC1CCCCC1)N1CCc2[nH]c3ccccc3c2C1`, inactive: > 76.9 µM.
Then `CCC(=O)Nc1ccc(OC)cc1OC`, with inactive: > 76.9 µM; and `Cn1c(=O)c2c(nc(Br)n2CC(=O)C23CC4CC(CC(C4)C2)C3)n(C)c1=O`, with inactive: > 76.9 µM.
For `O=C1c2ccccc2C2NC(=O)C3(CCCCC3)N12` (stereo unspecified), the Potency is inactive: > 76.9 µM.
To `O=C(OCc1c(F)cccc1Cl)c1cnccn1` belongs inactive: > 76.9 µM; to `Cc1sc2nc(C(C)C)nc(SCC(=O)N3CCN(C(=O)c4ccco4)CC3)c2c1C`, inactive: > 76.9 µM.
To `Cn1c(SCC(=O)c2ccccc2)nnc1-c1cnccn1` belongs inactive: > 76.9 µM; to `COCc1[nH]nc2c1C(c1cc(OC)c(O)c(OC)c1)C(C#N)=C(N)O2` (stereo unspecified), inactive: > 76.9 µM; to `Cc1ccc(-c2csc3nnc(SCc4csc(C)n4)n23)cc1`, inactive: > 76.9 µM.
In the case of `N#CCCN(CCC#N)C(=O)c1ccc2c(c1)OCO2`, the Potency was inactive: > 76.9 µM.
In the case of `CN(C)/C=N/c1c(C#N)cnn1-c1ccc(C(F)(F)F)cn1`, the Potency is inactive: > 76.9 µM.
Then `O=C(NCc1ccco1)[C@@H]1CSC2c3ccccc3C(=O)N21` (stereo partly specified), with inactive: > 76.9 µM; and `Cc1ccc(-c2nn(CC(=O)Nc3ccc4c(c3)nc3n4CCOC3)c(=O)c3ccccc23)cc1`, with inactive: > 76.9 µM.
